“And” between values parts separate entries of the source, which are not always exact repeats. Identical values can stand only once. Inconclusive means that the source gave no clear call. Such entries were picked first, then a sample of the others. For part of these data: Potencies beside an inconclusive call are fits to weak or partial responses and may not hold up. The source made the active and inactive calls. Unless noted, calls follow the shape of the full dose curve.
What was measured:
[1] = molecular target: Peroxisome proliferator-activated receptor gamma (Homo sapiens) (UniProt P37231); assay: qHTS assay to identify small molecule antagonists of the peroxisome proliferator-activated receptor gamma (PPARg) signaling pathway (AID 743191); conditions: HEK293H PPARg-UAS-bla, beta-lactamase ratio, antagonist, 17 h; ratio activity, negative = inhibition: at 62.6 µM (top of the series) unless noted; also: nearly all actives have a fitted effect of over 30% in size; also: potency is read from the fitted curve at half-maximal effect; as to ratio activity, negative = inhibition: % is scaled to controls: 0 for no effect and ±100 for the full control effect
Outline: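 GeneBLAzer PPARg UAS-bla HEK293H cells, 5 h post-plating, exposed to compounds 17 h at 37C. LiveBLAzer B/G FRET substrate added for 1 h at room temperature; beta-lactamase reporter read by fluorescence intensity.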

[2] = qHTS assay for small molecule agonists of the antioxidant response element (ARE) signaling pathway (AID 743202; active = well fitted activation curve with a large enough effect in the signal ratio in the repeat runs, not every such curve was filed as active; inconclusive = weak or mixed curves, or effect the other way; inactive = no such curve, though single readings can be large or run the other way; the % refers to the signal ratio; also: potency is read from the fitted curve at half-maximal effect); conditions: HepG2 ARE-bla reporter, beta-lactamase FRET, 16 h; activation: at 73.3 µM (top of the series) unless noted
Outline: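 ARE-bla HepG2 cells (beta-lactamase reporter under the antioxidant response element), plated 5 hours, then exposed to compounds 16 hours at 37 C. LiveBLAzer B/G FRET substrate added for 2 hours at room temperature; fluorescence intensity read.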

[3] = qHTS assay for small molecule activators of the heat shock response signaling pathway (AID 743210; active = well fitted activation curve with a large enough effect in the signal ratio in the repeat runs, with a control signal flat, not every such curve was filed as active; inconclusive = weak or mixed curves; the % refers to the signal ratio; also: potency is read from the fitted curve at half-maximal effect); conditions: HeLa HSE-bla reporter, beta-lactamase ratio, 5 h; activation: at 62.6 µM (top of the series)
Outline: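 HSE-bla HeLa cells (beta-lactamase reporter under heat shock response elements), plated overnight, then exposed to compounds 5 h at 37 C; LiveBLAzer B/G FRET substrate added, 2.5 h at room temperature, fluorescence intensity read.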

[4] = molecular target: Vitamin D3 receptor (Homo sapiens) (UniProt P11473); assay: qHTS assay to identify small molecule antagonists of the vitamin D receptor (VDR) signaling pathway (AID 743223; active = well fitted inhibition curve with a large enough effect in the signal ratio in the repeat runs, not every such curve was filed as active; inconclusive = weak or mixed curves, or effect the other way; inactive = no such curve, though single readings can be large or run the other way; the % refers to the signal ratio; also: potency is read from the fitted curve at half-maximal effect); conditions: VDR-UAS-bla HEK293T, beta-lactamase FRET ratio, 16 h; activity change, negative = inhibition: at 61 µM (top of the series) unless noted
Outline: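 VDR-bla cells were treated with compound plus 3 nM final 1alpha,25-dihydroxyvitamin D3 for 16 h at 37C. Beta-lactamase reporter read by B/G FRET substrate fluorescence after 2 h at room temperature. qHTS format.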

[5] = molecular target: Peroxisome proliferator-activated receptor delta (Homo sapiens) (UniProt Q03181); assay: qHTS assay to identify small molecule antagonists of the peroxisome proliferator-activated receptor delta (PPARd) signaling pathway (AID 743215; active = well fitted inhibition curve with a large enough effect in the signal ratio in the repeat runs, not every such curve was filed as active; inconclusive = weak or mixed curves, or effect the other way; inactive = no such curve, though single readings can be large or run the other way; the % refers to the signal ratio;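 also: cells stimulated with agonist L165041 at 300 nM final during compound exposure; % is scaled to controls: 0 for no effect and ±100 for the full control effect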); conditions: HEK293H PPARd-UAS-bla, beta-lactamase FRET ratio, antagonist, 17 h; ratio activity, negative = inhibition: at 62 µM (top of the series) unless noted
Outline: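 HEK293H UAS-bla, PPARd; agonist L165041 300 nM final with cpd in DMSO; 37 C 17 h; FRET substrate, RT 2 h; fluorescence intensity.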

[6] = qHTS assay for small molecule activators of the heat shock response signaling pathway - cell viability counter screen (AID 743209; active = well fitted curve in the direction sought with a large enough effect in the repeat runs; inconclusive = weak or mixed curves; inactive = no such curve, though single readings can be large; an effect the other way counts as inactive or inconclusive; also: nearly all actives have a fitted effect of over 50% in size; also: potency is read from the fitted curve at half-maximal effect); conditions: HSE-bla HeLa viability, CellTiter-Glo luminescence, 5 h; activity change, negative = cytotoxicity: at 62.6 µM (top of the series)
Outline: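 Readout: CellTiter-Glo luminescence, 30 min at room temperature. System: HSE-bla HeLa cells, 1500/well, plated overnight. Treatment: compounds in DMSO, 5 h at 37 C.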

[7] = molecular target: Bile acid receptor (Homo sapiens) (UniProt Q96RI1); assay: qHTS assay to identify small molecule antagonists of the farnesoid-X-receptor (FXR) signaling pathway (AID 743217; active = well fitted inhibition curve with a large enough effect in the signal ratio in the repeat runs, not every such curve was filed as active; inconclusive = weak or mixed curves, or effect the other way; inactive = no such curve, though single readings can be large or run the other way; the % refers to the signal ratio; also: potency is read from the fitted curve at half-maximal effect); conditions: HEK293T FXR-UAS-bla, beta-lactamase ratio, CDCA-stimulated, 16 h; activity change, negative = inhibition: at 62.6 µM (top of the series) unless noted
Outline: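 GeneBLAzer FXR-UAS-bla HEK 293T, CDCA-stimulated (50 uM final). Compound treatment 16 h, 37 °C. Detection: beta-lactamase cleavage of B/G FRET substrate, fluorescence.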

[8] = molecular target: Vitamin D3 receptor (Homo sapiens) (UniProt P11473); assay: qHTS assay to identify small molecule agonists of the vitamin D receptor (VDR) signaling pathway (AID 743222); conditions: HEK293T VDR-UAS-bla, beta-lactamase FRET ratio, 16 h; activation: at 63.5 µM (top of the series) unless noted; also: potency is read from the fitted curve at half-maximal effect
Outline: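 In VDR-bla cells, compound-induced beta-lactamase expression is quantified by FRET substrate fluorescence. Treatment lasts 16 h at 37C; substrate develops 2 h at room temperature.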

[9] = molecular target: Peroxisome proliferator-activated receptor delta (Homo sapiens) (UniProt Q03181); assay: qHTS assay to identify small molecule agonists of the peroxisome proliferator-activated receptor delta (PPARd) signaling pathway (AID 743212); conditions: HEK293H PPARd-UAS-bla, beta-lactamase FRET ratio, 17 h; activation: at 62.6 µM (top of the series) unless noted; also: % is scaled to controls: 0 for no effect and ±100 for the full control effect
Outline: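 GeneBLAzer UAS-bla HEK293H cells carrying a PPARδ construct were exposed to compounds at 37 °C. Beta-lactamase activity was read by FRET fluorescence after 2 h at room temperature with LiveBLAzer B/G substrate.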

[10] = molecular target: Bile acid receptor (Homo sapiens) (UniProt Q96RI1); assay: qHTS assay to identify small molecule agonists of the farnesoid-X-receptor (FXR) signaling pathway (AID 743220; active = well fitted activation curve with a large enough effect in the signal ratio in the repeat runs, not every such curve was filed as active; inconclusive = weak or mixed curves, or effect the other way; the % refers to the signal ratio; also: % is scaled to controls: 0 for no effect and ±100 for the full control effect); conditions: HEK293T FXR-UAS-bla, beta-lactamase FRET ratio, 16 h; activation: at 62.6 µM (top of the series) unless noted
Outline: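 Beta-lactamase reporter under UAS control in GeneBLAzer FXR HEK 293T cells (5000/well) measured with LiveBLAzer FRET substrate after 2 h at room temperature. Compound exposure lasted 16 h at 37C.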

[11] = qHTS assay to identify small molecule agonists of the peroxisome proliferator-activated receptor delta (PPARd) signaling pathway - cell viability counter screen (AID 743211; active = well fitted curve in the direction sought with a large enough effect in the repeat runs; inconclusive = weak or mixed curves; inactive = no such curve, though single readings can be large; an effect the other way counts as inactive or inconclusive; also: potency is read from the fitted curve at half-maximal effect; nearly all actives have a fitted effect of over 55% in size); conditions: PPARd-bla HEK293H viability, CellTiter-Glo luminescence, 17 h; activity change, negative = cytotoxicity: at 62.6 µM (top of the series)
Outline: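 PPARd-bla HEK293H cells (3000/well) were pre-incubated 5 h at 37 C, then exposed to compound for 17 h at 37 C. After 2 h with LiveBLAzer substrate, CellTiter-Glo was added to the same wells; luminescence read after 30 min at room temperature.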

[12] = qHTS assay to identify small molecule agonists of the farnesoid-X-receptor (FXR) signaling pathway - cell viability counter screen (AID 743218; active = well fitted curve in the direction sought with a large enough effect in the repeat runs; inconclusive = weak or mixed curves; inactive = no such curve, though single readings can be large; an effect the other way counts as inactive or inconclusive; also: nearly all actives have a fitted effect of over 45% in size; also: potency is read from the fitted curve at half-maximal effect); conditions: FXR-bla HEK293T viability, CellTiter-Glo luminescence, 16 h; viability change, negative = cytotoxic: at 62.6 µM (top of the series) unless noted
Outline: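 Parallel cytotoxicity test: compound-treated (16 h, 37 C) HEK 293T FXR-bla reporter cells were lysed with CellTiter-Glo and luminescence recorded.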

[13] = qHTS assay to identify small molecule antagonists of the peroxisome proliferator-activated receptor delta (PPARd) signaling pathway - cell viability counter screen (AID 743213; active = well fitted curve in the direction sought with a large enough effect in the repeat runs; inconclusive = weak or mixed curves; inactive = no such curve, though single readings can be large; an effect the other way counts as inactive or inconclusive; also: nearly all actives have a fitted effect of over 50% in size; also: potency is read from the fitted curve at half-maximal effect); conditions: PPARd-bla HEK293H viability, CellTiter-Glo luminescence, 17 h; viability change, negative = cytotoxic: at 62 µM (top of the series) unless noted
Outline: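 Same-well viability: cells pre-incubated 5 h, dosed with compound plus 300 nM L165041, kept 17 h at 37 C, FRET substrate 2 h RT, then CellTiter-Glo 30 min RT and luminescence.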

[14] = qHTS assay to identify small molecule antagonists of the farnesoid-X-receptor (FXR) signaling pathway - cell viability counter screen (AID 743221; active = well fitted cell-killing curve with a large enough effect in the repeat runs, not every such curve was filed as active; inconclusive = weak or mixed curves, or effect the other way; inactive = no such curve, though single readings can be large or run the other way; also: nearly all actives have a fitted effect of over 50% in size; also: potency is read from the fitted curve at half-maximal effect); conditions: FXR-bla HEK293T viability, CellTiter-Glo luminescence, 16 h; activity change, negative = cytotoxicity: at 62.6 µM (top of the series)
Outline: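 GeneBLAzer FXR-UAS-bla HEK 293T cells, compound plus chenodeoxycholic acid (50 uM final), 16 h at 37 C. CellTiter-Glo added to the same wells after the beta-lactamase read; luminescence read after 30 min at room temperature as viability.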
Tags tell the direction and shape of the fitted curve or compound fluorescence and quenching.

UniProt Q03181, sequence (Q03181 whole entry, looked up): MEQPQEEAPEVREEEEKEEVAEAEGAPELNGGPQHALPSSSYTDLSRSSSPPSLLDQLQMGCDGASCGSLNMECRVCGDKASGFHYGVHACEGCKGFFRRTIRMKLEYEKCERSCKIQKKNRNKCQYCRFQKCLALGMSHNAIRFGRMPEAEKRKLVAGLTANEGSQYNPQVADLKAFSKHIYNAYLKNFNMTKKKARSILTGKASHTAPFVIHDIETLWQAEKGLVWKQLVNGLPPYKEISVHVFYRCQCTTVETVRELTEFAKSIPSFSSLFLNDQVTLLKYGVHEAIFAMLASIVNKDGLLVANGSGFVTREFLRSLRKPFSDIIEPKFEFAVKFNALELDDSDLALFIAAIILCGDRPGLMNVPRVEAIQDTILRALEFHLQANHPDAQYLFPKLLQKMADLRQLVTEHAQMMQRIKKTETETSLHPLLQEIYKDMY
UniProt P37231, sequence (P37231 whole entry, looked up): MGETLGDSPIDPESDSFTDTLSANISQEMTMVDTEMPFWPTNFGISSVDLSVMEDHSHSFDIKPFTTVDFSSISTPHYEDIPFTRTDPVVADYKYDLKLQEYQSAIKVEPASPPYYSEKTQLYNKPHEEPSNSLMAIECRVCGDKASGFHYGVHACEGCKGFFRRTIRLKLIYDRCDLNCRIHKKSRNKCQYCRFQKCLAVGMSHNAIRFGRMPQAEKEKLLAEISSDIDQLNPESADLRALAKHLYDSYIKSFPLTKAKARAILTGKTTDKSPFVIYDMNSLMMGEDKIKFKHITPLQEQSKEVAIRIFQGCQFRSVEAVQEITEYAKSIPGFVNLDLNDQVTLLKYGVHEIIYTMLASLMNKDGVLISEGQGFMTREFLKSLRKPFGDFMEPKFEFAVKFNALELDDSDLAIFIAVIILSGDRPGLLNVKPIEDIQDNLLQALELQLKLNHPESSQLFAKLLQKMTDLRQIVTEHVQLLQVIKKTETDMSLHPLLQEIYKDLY
UniProt P11473, sequence (P11473 whole entry, looked up): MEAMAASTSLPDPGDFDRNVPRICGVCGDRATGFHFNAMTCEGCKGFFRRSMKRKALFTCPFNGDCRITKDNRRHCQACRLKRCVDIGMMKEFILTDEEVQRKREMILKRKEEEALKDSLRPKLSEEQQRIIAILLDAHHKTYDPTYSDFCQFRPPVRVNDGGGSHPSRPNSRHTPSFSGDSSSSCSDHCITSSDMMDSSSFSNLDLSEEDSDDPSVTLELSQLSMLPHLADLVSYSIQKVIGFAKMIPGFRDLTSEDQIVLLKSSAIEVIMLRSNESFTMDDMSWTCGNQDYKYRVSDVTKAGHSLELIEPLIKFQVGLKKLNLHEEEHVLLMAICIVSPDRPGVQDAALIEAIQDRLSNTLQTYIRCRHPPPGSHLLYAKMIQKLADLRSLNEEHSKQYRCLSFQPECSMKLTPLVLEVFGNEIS
UniProt Q96RI1, sequence (Q96RI1 whole entry, looked up): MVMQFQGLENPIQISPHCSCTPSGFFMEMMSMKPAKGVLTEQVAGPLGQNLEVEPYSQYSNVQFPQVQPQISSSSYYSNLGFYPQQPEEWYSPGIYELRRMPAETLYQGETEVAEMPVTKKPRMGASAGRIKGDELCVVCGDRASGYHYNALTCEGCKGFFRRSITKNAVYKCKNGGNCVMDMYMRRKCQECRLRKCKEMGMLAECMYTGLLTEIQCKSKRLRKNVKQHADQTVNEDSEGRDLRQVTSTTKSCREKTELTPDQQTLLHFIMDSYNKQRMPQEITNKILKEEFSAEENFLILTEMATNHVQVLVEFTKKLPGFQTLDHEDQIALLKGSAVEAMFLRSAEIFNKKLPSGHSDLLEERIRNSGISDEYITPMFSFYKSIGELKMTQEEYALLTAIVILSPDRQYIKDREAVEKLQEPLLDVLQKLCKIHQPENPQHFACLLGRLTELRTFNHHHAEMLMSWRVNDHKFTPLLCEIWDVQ

In the case of `CC(=O)CC/C=C(\C)CCC=C(C)C`, the Potency [1] was “inactive”, the activation [2] was inconclusive: 35.5% and the Potency [3] was inconclusive: 61.7 µM [activator, single point]. The activity change, negative = inhibition [4] was inconclusive: -4.7% [at 78.8 µM].
In the case of `CC1=CCC2C(C1)C2(C)C` (stereo not given), the Potency [1] was inconclusive: 21.9 µM [activator], the Potency [2] was inconclusive: 38.6 µM [rising, partial curve] and the Potency [3] was inconclusive: 61.7 µM [activator]. The ratio activity, negative = inhibition [5] was inconclusive: 2.26% and the activity change, negative = inhibition [4] was inconclusive: 8.72%.
In the case of `CC(C(=O)O)c1ccc(CC2CCCC2=O)cc1` (stereo not given), the Potency [1] was “inactive”, the Potency [2] was “inactive” and the Potency [6] was “inactive”. The Potency [3] was inconclusive: 1.5 µM [rising, full curve] and the activity change, negative = inhibition [7] was inconclusive: -6.69%.
For `Cc1ncc([N+](=O)[O-])n1CC(O)CCl` (stereo not given), the ratio activity, negative = inhibition [1] was inconclusive: 5.89%, the Potency [2] was “inactive” and the Potency [6] was inconclusive: 1.5 µM [cytotoxic, partial curve, poor fit]. For the same compound, the Potency [4] was “inactive”.
For `c1ccc(CNCCNCc2ccccc2)cc1`, the ratio activity, negative = inhibition [1] was inconclusive: -3.77%, the Potency [2] was “inactive” and the Potency [6] was “inactive”. The Potency [8] was inconclusive: 5.31 µM [rising, partial curve].
With `COC(=O)C1=C(C)NC(C)=C(C(=O)OCCc2ccc(N3CCN(C(c4ccccc4)c4ccccc4)CC3)cc2)C1c1cccc([N+](=O)[O-])c1` (stereo not given) the Potency [1] was inconclusive: 6.68 µM [cytotoxic, partial curve, poor fit], the activation [2] was inconclusive: 13.9% and the Potency [3] was inconclusive: 19.9 µM. The Potency [5] was “inactive” and the activity change, negative = inhibition [4] was inconclusive: -38%.
For `Cc1oc(-c2ccccc2)nc1CCC(=O)c1ccc(CC2SC(=O)NC2=O)cc1` (stereo not given), the ratio activity, negative = inhibition [1] was inconclusive: -12.5%, the Potency [2] was active: 13.3 µM and the Potency [3] was inconclusive: 23.7 µM [activator, partial curve, poor fit]. The activation [9] was inconclusive: 2.27%, the ratio activity, negative = inhibition [5] was inconclusive: 7.24% and the activity change, negative = inhibition [7] was inconclusive: -1.66%. The activation [10] was inconclusive: 3.14%, the Potency [8] was inconclusive: 4.22 µM [fluorescent, partial curve] and the Potency [4] was “inactive”.
For `C/C=C(/C(=C/C)c1ccc(OC(C)=O)cc1)c1ccc(OC(C)=O)cc1`, the Potency [1] was inconclusive: 29.8 µM [rising, partial curve, poor fit], the Potency [2] was active: 13.3 µM and the Potency [3] was inconclusive: 33.5 µM [activator, single point]. The Potency [11] was inconclusive: 33.5 µM [cytotoxic, single point] and the Potency [4] was inconclusive: 13.4 µM [inhibitor, partial curve].
For `CC(C)[N+](C)(C)CC(O)COc1cccc2ccccc12` (stereo not given), the Potency [1] was “inactive”, the activation [2] was inconclusive: -9.23% and the Potency [3] was “inactive”. For the same compound, the Potency [12] was inconclusive: 33.5 µM [cytotoxic, single point].
With `CCCC/C=C\CCCCCCCCCC=O` the Potency [1] was inconclusive: 34.7 µM [activator], the activation [2] was inconclusive: -1.27% and the Potency [3] was “inactive”. For the same compound, the Potency [9] was “inactive”, the Potency [13] was “inactive” and the ratio activity, negative = inhibition [5] was inconclusive: 21.1%.
For `Cc1ccc(CCn2c3c(c4cc(Cl)ccc42)CN(C)CC3)cn1`, the ratio activity, negative = inhibition [1] was inconclusive: 14.3%, the Potency [2] was inconclusive: 26.6 µM [rising, partial curve] and the Potency [11] was inconclusive: 11.9 µM [cytotoxic, partial curve]. The activation [9] was inconclusive: 0.37%, the Potency [13] was inconclusive: 11.9 µM [cytotoxic, partial curve] and the Potency [7] was inconclusive: 33.5 µM [rising, partial curve, poor fit]. For the same compound, the Potency [12] was inconclusive: 26.6 µM [cytotoxic, single point] and the Potency [14] was inconclusive: 23.7 µM [falling, partial curve, poor fit].
For `CC(=O)O[C@H]1CC[C@@]2(C)C(=CC[C@@H]3[C@@H]2CC[C@]2(C)C(C(C)=O)=CC[C@@H]32)C1`, the Potency [1] was “inactive”, the Potency [2] was active: 23.7 µM and the Potency [8] was “inactive”. For the same compound, the Potency [4] was “inactive”.
For `C=CCOCC(O)CS(=O)(=O)O` (stereo not given), the ratio activity, negative = inhibition [1] was inconclusive: -1.8% [at 81.1 µM], the Potency [2] was “inactive” and the activity change, negative = inhibition [4] was inconclusive: 3.4% [at 78.8 µM].
For `COc1ccccc1Oc1c(NS(=O)(=O)c2ccc(C(C)(C)C)cc2)nc(-c2ncccn2)nc1OCCO`, the Potency [1] was inconclusive: 26.6 µM [inhibitor, partial curve, poor fit], the Potency [2] was inconclusive: 33.5 µM [rising, partial curve, poor fit] and the Potency [12] was “inactive”. The Potency [8] was inconclusive: 33.5 µM [single point].
In the case of `CC(=O)Nc1ncc([N+](=O)[O-])s1`, the Potency [1] was “inactive”, the activation [2] was inconclusive: 17.9% and the Potency [13] was inconclusive: 7.5 µM [cytotoxic, single point]. The ratio activity, negative = inhibition [5] was inconclusive: -6.1%, the Potency [10] was “inactive” and the activity change, negative = inhibition [4] was inconclusive: -35.2%.
For `CC(=O)O[C@@H]1C(=O)O[C@@H]2[C@H]1OC(=O)[C@@H]2OC(C)=O`, the ratio activity, negative = inhibition [1] was inconclusive: -4.91%, the Potency [2] was active: 10.6 µM and the Potency [13] was inconclusive: 0.106 µM [cytotoxic, full curve, poor fit]. For the same compound, the ratio activity, negative = inhibition [5] was inconclusive: 3.67%.
For `COc1ccc(-c2coc3cc(O)ccc3c2=O)cc1`, the Potency [1] was “inactive”, the Potency [2] was inconclusive: 21.7 µM and the ratio activity, negative = inhibition [5] was inconclusive: 5.45%. The activity change, negative = inhibition [4] was inconclusive: 31% [activator].
In the case of `NS(=O)(=O)O`, the ratio activity, negative = inhibition [1] was inconclusive: 4.52% [at 81.1 µM], the activation [2] was inconclusive: 7.64% and inconclusive: 28.9% and the Potency [14] was “inactive”. The Potency [8] was “inactive”, the Potency [4] was inconclusive: 30.2 µM [activator, partial curve, poor fit] and the activity change, negative = inhibition [4] was inconclusive: 5.52% [at 78.8 µM].
